Test results from PubChem BioAssay AID1963576 (National Center for Advancing Translational Sciences (NCATS), 2024).
Out of some 46,000 compounds screened, about 60 (0.1%) were called active. Not shown: some 3% with an inconclusive outcome. The call rests on the fitted dose curve; in most records, active means well fitted inhibition curve with a large enough effect; inconclusive means small, poorly fitted or top-dose-only effect; inactive means no such curve, though single readings can be large or run the other way. Some of the results follow.

Test: Primary qHTS assay for Inhibitors of ovarian cancer metastasis using an organotypic tumor microenvironment (TME) model. Further: nearly all actives have a fitted effect of over 65% in size.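 On activity change, negative = inhibition: plate controls were DMSO wells for no effect and tomatine positive control wells for full effect.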
Details: SKOV3ip1-GFP adhesion/invasion on 3D omental model, fluorescence; series mostly up to 45.8 µM; activity change, negative = inhibition: at the top concentration
Outline: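 qHTS, 4-pt dose (0.36-46 umol/L); SKOV3ip1-GFP, 1,200 cells/well, no FBS; primary omental fibroblast/mesothelial co-culture 48 h pre-grown; 2 h RT + 16 h 37 C; PBS wash, 4% PFA; GFP count 488/509 nm.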

Activity change, negative = inhibition, inactive:
CC(C)c1cnc2c(c1SCc1cccc(F)c1)c(=O)n(C)c(=O)n2C 5.6%
Cc1ccc(Cn2ccn(CC(=O)Nc3c(C)cc(C)cc3C)c(=O)c2=O)cc1 -3.73%
Cc1nc2nc(NC(=O)C(C)(C)C)[nH]n2c(=O)c1Cc1ccccc1 -25.8%
CCOC(=O)c1cc2c(=O)n3ccccc3nc2n(CCOC)c1=NC(=O)C(C)(C)Oc1ccc(Cl)cc1 4.08%
COc1cc(NC(=O)C2CCN(S(=O)(=O)c3ccc4c(c3)oc(=O)n4C)CC2)cc(OC)c1 -0.923%
O=C(CSC1=Nc2ccccc2C2=NC(Cc3ccccc3)C(=O)N12)Nc1ccccc1C(F)(F)F (stereo not given) -16.8%
COc1ccc(NS(=O)(=O)c2cc3c(cc2C)NC(=O)CO3)c(OC)c1 6.98%
COc1ccc(NC(=O)Cn2c(=O)oc3cc(S(=O)(=O)NCc4ccccc4)ccc32)c(OC)c1 10.1%
CCCCN(C)CCCNC(=O)Cn1ncc2c3ccccc3n(Cc3ccccc3F)c2c1=O -29.1%
CC(C)NC(=O)Cn1c(=O)nc(-c2ccccc2F)c2cc(Cl)ccc21 -7.91%
CCOc1ccc(CN2C(=O)c3ccccc3Sc3ccc(C(=O)NC)cc32)cc1 -8.83%
Cc1cccc(CNC(=O)c2oc3c(c2C)-c2nn(Cc4cccc(Cl)c4)cc2CC3)c1 -4.57%
Cc1ccc(NC(=O)N2CCC3(CC2)Oc2ccccc2C(=O)N3Cc2ccc(F)cc2)cc1 9.99%
CC(Oc1ccccc1)C(=O)Nc1cccc(-c2cn3cccnc3n2)c1 (stereo not given) 1.19%
CCNC(=O)c1ccc2c(c1)sc1nc(-c3cccc(OC)c3)cn12 -4.12%
COc1ccc(/C=C/c2nc(C#N)c(NCc3ccc(C)cc3)o2)cc1OC -1.83%
Cc1c2cnn(CC(=O)NC(C)C)c(=O)c2c(C)n1Cc1cccc(Cl)c1 -0.528%
CCc1ccc(OC(=O)CSc2nnc(-c3ccc(OC)c(OC)c3)o2)cc1 4.19%
Cc1c(C(=O)OC2CCC(C)CC2)[nH]c2c1C(=O)CC(c1ccc(N(C)C)cc1)C2 (stereo not given) -3.99%
Fc1ccc(-c2cc(-c3nc(-c4ccc(Cl)cc4)no3)[nH]n2)cc1 7.81%
COc1ccc(S(=O)(=O)c2c(C(=O)c3ccc(C)c(C)c3)cnc3ccc(C)cc23)cc1 -1.39%
CCOc1nc(-c2ccccc2)ccc1-c1noc(-c2ccc(C)cc2)n1 -4.96%
O=C(Cn1cc(SCc2cccc(Cl)c2)c2ccccc21)N1CCCCC1 -26.3%
CCOc1ccc(NC(=O)CC2C(=O)N(c3ccccc3)C(=O)N2CCc2sccc2C)cc1 (stereo not given) 4.68%
COC(=O)c1cc(NC(=O)CC2C(=O)OCCN2Cc2ccccc2)cc(C(=O)OC)c1 (stereo not given) -6.59%
Cc1ccccc1CSc1nc2c(sc3ccccc32)c(=O)n1CCCC(=O)NCCCOC(C)C 6.83%
CC(=O)c1ccc(NC(=O)c2nc(-c3ccc(Cl)cc3)n3c2CCCCC3)cc1 -7.15%
CC(C)(C)OC(=O)N1CCC(c2c(C(=O)N3CCN(C(=O)c4ccco4)CC3)cnn2-c2cccc(Cl)c2)CC1 2.04%
COc1ccc(NC(=O)Cn2c(=O)c3ccccc3n3nncc23)cc1Cl 5.4%
NC(=O)N1c2ccccc2CC(=O)c2ccccc21 -13%
CN(c1nnc(NC(=O)Nc2ccccc2C(F)(F)F)s1)C1CCCCC1 -0.656%
CS(=O)(=O)CC[C@@H](C(=O)NCCc1ccccc1)N1Cc2ccccc2C1=O -7.69%
Cc1cc(C)c2c(=O)cc(C(=O)Nc3sc4c(c3C(=O)NCc3ccco3)CCCC4)oc2c1 -22.6%
Cc1cccc(OCC(=O)N2CCC(c3nc4ccccc4o3)CC2)c1C -6.17%
CC1CCN(S(=O)(=O)c2cc(C(=O)N3CCN(c4cccc(Cl)c4)CC3)n(C)c2)CC1 -6.13%
CCOC(=O)c1c(NC(=O)c2cc(-c3cccc(Cl)c3)on2)sc(C(C)=O)c1C -2.9%
O=C(C1COc2ccccc2O1)N(Cc1cccnc1)c1nc2c(F)cccc2s1 (stereo not given) 3.1%
Cc1ccc(Nc2c3c(nc4nncn24)CCC3)c(C)c1 31%
Cc1ccc(NC(=O)CN2C(=O)c3cccnc3Sc3ccccc32)c(Br)c1 -6.78%
CCOc1ccc(S(=O)(=O)c2cn(CC)c3ccc(F)cc3c2=O)cc1 1.79%
CCOC(=O)c1nnn(C(CC)C(=O)Nc2ccc(F)cc2)c1C(=O)OCC (stereo not given) 0.735%
COc1ccc(N(CC(=O)N2CCc3ccccc3C2)S(=O)(=O)c2ccccc2)cc1 -0.819%
O=c1n(Cc2ccc(F)cc2)c2ccccc2c2nc(-c3ccccc3)nn12 6.73%
Cc1ccc(CNC(=O)c2ccc(Cn3c(SCc4ccc(F)cc4)nc4cccnc43)cc2)o1 -7.06%
CCc1cccc(NC(=O)CSc2nnc(-c3cc4occc4n3C)n2-c2ccccc2C)c1 -8.44%
COc1cccc(/C=C/c2nc(C#N)c(NC3CCCCC3)o2)c1 -10.7%
CCOC(=O)c1c(C)oc2nc(C)nc(NCC3CCN(Cc4cc(C)ccc4C)CC3)c12 1.59%
CNC(=O)c1ccc2cc(C3(O)CCn4cncc43)ccc2c1 (stereo not given) 6.12%
CCc1cnc2c(c1SCC(=O)NCc1ccc(C)cc1)c(=O)n(C)c(=O)n2C 12.7%
Cc1ccc(CNC(=O)C2CCN(S(=O)(=O)c3ccc4nc5c(c(C(=O)O)c4c3)CC(C)CC5)CC2)cc1 (stereo not given) 15.4%
COc1cccc(NC(=O)N(CCC(C)C)C2CCN(C(C)C)CC2)c1 -1.11%
Cc1ccccc1OCC(=O)Nc1ccc(-c2nc3cc(Cl)cc(Cl)c3o2)cc1 9.05%
COc1cc2nc(SCC(=O)Nc3ccccc3C)n3nc(CCn4c(C)nc5ccccc54)nc3c2cc1OC 1.43%
CC(C)(C)C1CCc2c(sc(NC(=O)c3ccco3)c2C(=O)Nc2ccccc2Cl)C1 (stereo not given) -1.43%
CCn1cc(C(=O)N2CCN(c3cc(Cl)ccc3C)CC2)c(=O)c2cc(S(=O)(=O)N3CCCC3)ccc21 1.73%
COc1ccc(CNC(=O)C2=CC(c3ccc(OC)c(OC)c3)=NS(=O)(=O)N2C)cc1 2.94%
CCOC(=O)c1ccc(N2CCN(c3ccccc3OC)CC2)c(NC(=O)Nc2ccc(CC)cc2)c1 -4.87%
Cc1cccc2sc(N(Cc3cccnc3)C(=O)CCOc3ccccc3)nc12 2.66%
CCOC(=O)CSc1nc2ccc(NC(=O)COc3ccc(F)cc3)cc2s1 -0.75%
CN(C)c1ccc(C(CNC(=O)c2ccccc2Cl)N2CCCC2)cc1 (stereo not given) 6.05%
Cc1cc(C)c(NC(=O)C2CCN(S(=O)(=O)c3c(C)noc3/C=C/c3ccccc3F)CC2)c(C)c1 -4.76%
COc1ccc(S(=O)(=O)c2c(Nc3ccc(C)cc3C)sc(C(=O)c3ccc(F)cc3)c2N)cc1 -5.63%
COc1ccc(N2CCN(CCCNC(=O)c3cnn(-c4ccc(C)cc4)c3-n3cccc3)CC2)cc1 -17.5%
O=C(NCc1ccccc1)C(=O)NCC(c1cccs1)S(=O)(=O)c1cccs1 (stereo not given) -22.4%
CN1C(=O)Cc2cc(S(=O)(=O)NCc3ccc(Cl)cc3)ccc21 9.94%
Cc1nnsc1C(=O)Oc1ccc(Cl)cc1 -0.772%
CCc1ccc(-n2nc(C)c3c(C)cc(=O)n(CC(=O)Nc4cc(C)ccc4C)c32)cc1 -27.8%
Cc1c(C(=O)OCC2CCCCC2)[nH]c2c1C(=O)CC(c1ccccc1Cl)C2 (stereo not given) 2.75%
Cc1cc(C)cc(C(=O)NCCc2csc(-c3ccc(C(F)(F)F)cc3)n2)c1 3.09%
CCc1ccccc1S(=O)(=O)Cc1ccc(C(=O)NCCc2ccc(C)cc2)o1 8.46%
CCC(Sc1nnc2c(n1)[nH]c1ccccc12)C(=O)Nc1ccccc1OC (stereo not given) 13.7%
Cc1ccc(Cn2c(=O)n(CCCCC(=O)NCc3ccc4c(c3)OCO4)c(=O)c3ccccc32)cc1 -2.15%

outcome, inactive:
Cc1noc(-c2ccc(N3CCC(C)CC3)c([N+](=O)[O-])c2)n1
Cc1cn2c(=O)cc(COc3ccccc3NC(=O)c3ccc(C(C)(C)C)cc3)nc2s1
O=C(NCCc1ccccc1)c1ccc2c(c1)N(Cc1ccc(F)cc1Cl)C(=O)CS2
COc1cccc(OCC(=O)NC2CC(=O)N(c3cccc(OC)c3)C2)c1 (stereo not given)
COCc1cc(C)nc2c1C(=O)NC(c1ccc(NC(C)=O)cc1)N2Cc1ccccc1 (stereo not given)
Cc1ccc(NC(=O)Cn2nnc(-c3ccccc3)n2)c(C)c1
COc1ccccc1C1C(C(=O)N2CCCCC2)=C(C)Nc2nc3ccccc3n21 (stereo not given)
Cc1ccc(-n2nc(CO)c(C(=O)NCCC(C)C)n2)cc1C
COc1cccc(-n2c(=O)c3sc4ccccc4c3n(Cc3c(F)cccc3Cl)c2=O)c1
CSc1ccc(CCNC(=O)Cn2c(C)c3cnn(-c4ccccc4)c(=O)c3c2C)cc1
Cc1ccc(N2C(=O)C(CC(=O)Nc3cccc(F)c3)N(CCc3ccccc3F)C2=O)cc1 (stereo not given)
CC(=O)c1ccc(NS(=O)(=O)c2ccc(Br)s2)cc1
Cn1ccc2c(OCC(=O)Nc3ccc(OC(F)(F)F)cc3)cccc2c1=O
COc1cc(Cl)c(C)cc1NC(=O)c1cc2c(=O)oc3ccccc3c2s1
CCOc1ccc(C(=O)OCc2cc(=O)n3nc(C4CC4)sc3n2)cc1
Cc1cc(C(=O)N2CCN(c3cccc(Cl)c3)CC2)c2c(C)nn(-c3ccccc3Cl)c2n1
CCOCCCNC(=O)c1cn(CC)c2ccc(S(=O)(=O)N3CCOCC3)cc2c1=O
CCOc1ccc(NC(=O)N(Cc2cn(CC)c3ccccc23)C2CCCCCC2)cc1
O=C(CSc1nc2c([nH]c3ccccc32)c(=O)n1-c1cccc(Cl)c1)c1ccccc1
COc1ccc(NC(=O)c2ncn(-c3ccccc3)n2)cc1Cl
CCCCn1cc(S(=O)(=O)c2ccc(OC)cc2)c(=O)c2cc(F)c(N3CCOCC3)cc21
COc1ccc(CCNC(=O)CCc2c(C)nc3c4cccnc4nn3c2C)cc1OC
CCc1ccccc1NC(=O)CSc1ncc2c(n1)-c1cc(Cl)ccc1N(Cc1ccccc1)S2(=O)=O
